In the BET-seq Pho4 binding data (Le et al. 2018):
The other results are listed elsewhere or left out. Values were computed here from the reads of four pooled replicates and scatter widely.

These sequences were tested against T1, Pho4 (S. cerevisiae) (UniProt P07270) (assay: relative binding free energy (BET-seq); higher = weaker binding). Conditions: reference: library average.
T1 sequence: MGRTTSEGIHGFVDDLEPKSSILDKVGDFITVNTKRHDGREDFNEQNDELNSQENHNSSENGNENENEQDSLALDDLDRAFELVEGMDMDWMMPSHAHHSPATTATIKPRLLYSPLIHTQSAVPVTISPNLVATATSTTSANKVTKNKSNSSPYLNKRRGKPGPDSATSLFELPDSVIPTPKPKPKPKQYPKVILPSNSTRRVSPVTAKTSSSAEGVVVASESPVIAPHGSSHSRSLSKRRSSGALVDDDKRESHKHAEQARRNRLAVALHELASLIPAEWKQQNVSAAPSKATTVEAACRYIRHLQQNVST

Sequence | relative binding free energy [kcal/mol]
TGCAGCACGTGTCGGG | 0.02
TGTGGCACGTGATACA | 0.1
TACGTCACGTGCTGTT | 0.15
TGTCTCACGTGATTGG | 0.2
GTTATCACGTGATTTT | 0.38
ACAGTCACGTGTGTAG | 0.14
GTCGCCACGTGGGAGG | -0.1
CATGGCACGTGGAAGT | 0.1
TGGACCACGTGCGGGG | -0.2
GGGTGCACGTGGGTCT | -0.14
AGACTCACGTGAGGGG | 0.2
GGAAACACGTGCGTGG | -0.03
AATGGCACGTGAGTAT | 0.05
CGAAGCACGTGGTTGG | -0.2
TTTCACACGTGGTTGC | 0.09
GGGGTCACGTGTACGG | 0.2
TTATGCACGTGGGAAT | -0.11
CGGAGCACGTGGGTGT | -0.23
GCGTCCACGTGTGTGG | 0
GTTAACACGTGTAATG | 0
TGCGTCACGTGTGGGC | 0.14
TCTTTCACGTGGTTGG | 0.31
ACAGTCACGTGTTAAT | 0.18
GGTCACACGTGTATGG | 0.18
AATTTCACGTGGAGGA | 0.15

Sequence | relative binding free energy [kcal/mol]
TGCGTCACGTGGACTT | 0.18
ATGTACACGTGTCATT | 0.06
TGTTACACGTGGGAGT | 0.02
GAGGTCACGTGTGCGT | 0.21
TTTTGCACGTGTCTCA | 0.08
CTTGGCACGTGAGTGT | 0.19
CGGTGCACGTGGAGTT | 0
TATAGCACGTGAATTT | 0.32
TAGGGCACGTGCTATG | -0.2
GTCTTCACGTGAGATG | 0.44
GGAGGCACGTGTTGCT | -0.17
CGGTTCACGTGACGGT | 0.33
CGAGCCACGTGGGTGG | -0.31
TGAGACACGTGAGTTT | 0.2
GTCGTCACGTGGGGTC | 0.03
GTTCGCACGTGGAGCG | -0.02
TCATACACGTGATTTG | 0.25
GATAGCACGTGTGGTA | 0.03
GCTGGCACGTGTCTTA | 0.13
TTTCTCACGTGTGGTT | 0.32
GAGTGCACGTGGGTTT | -0.13
ATATACACGTGTACGG | 0.13
GGTTACACGTGGGCCG | 0.09
CTGAGCACGTGCGTGG | -0.2
CTGTTCACGTGTCGTG | 0.34

Sequence | relative binding free energy [kcal/mol]
ATGATCACGTGAGTGG | 0.15
GAGGGCACGTGTAAGC | 0.13
TGAAGCACGTGGTTCA | -0.04
AAATTCACGTGATTGA | 0.48
AGATTCACGTGCGGGG | 0.21
TATGGCACGTGTCGCG | -0.07
ATGGTCACGTGTTAGC | 0.18
CGAGTCACGTGCGTTG | 0.08
CTTTGCACGTGGGATT | 0.02
TCTGACACGTGGAGTG | 0.05
AGGATCACGTGGTGCG | -0.03
TTTGGCACGTGGGGTG | -0.19
TTGTTCACGTGCTCGG | 0.27
GGGGCCACGTGCGTTT | -0.12
ATATACACGTGTGTCG | -0.04
GTGGACACGTGGGTGA | -0.02
TTAATCACGTGTTAGA | 0.09
GGTGACACGTGTATAG | 0.11
AGTCACACGTGTGTTT | 0.13
TTGCACACGTGTGGGG | 0.16
GTTCACACGTGGTTAG | 0.12
ATATTCACGTGTAGAT | 0.23
GGGTACACGTGGGAAA | 0.1
GGGTACACGTGTATGC | 0.17
GGGGACACGTGGCGGG | -0.11

Sequence | relative binding free energy [kcal/mol]
TATGTCACGTGGCGGG | 0.1
TAGCGCACGTGTGTAT | -0.08
TTAGGCACGTGGAGAG | -0.05
GGTAGCACGTGTAGAA | 0.03
ATTGCCACGTGTGAGT | -0.01
TTTTGCACGTGCAGTA | -0.12
CGTGTCACGTGCGTAA | 0.05
TTTCGCACGTGATGGA | 0
TTGTCCACGTGTGCTT | 0.19
GAGTGCACGTGGTTAT | 0
GATGTCACGTGGGTTC | 0.04
TTTTCCACGTGTAAGT | 0.13
GTCAGCACGTGATGGA | 0.14
ATTGGCACGTGTTTTC | -0.18
TTATGCACGTGGGCGA | -0.17
TCTTTCACGTGTTTAA | 0.32
GGTATCACGTGAGTCA | 0.4
GGCTTCACGTGGGTCT | 0.3
GGGCGCACGTGAAGTT | 0.18
TGGGCCACGTGGAAGT | 0.02
TAGTGCACGTGTATTT | -0.02
AATGACACGTGCGTGG | -0.01
CGCGGCACGTGGGGCG | -0.18
AGGGACACGTGCGTAG | -0.01
CATTACACGTGTTGTT | 0.09

Sequence | relative binding free energy [kcal/mol]
GGGTGCACGTGGTACC | 0
AAGAGCACGTGGGGAT | -0.18
TAGATCACGTGGGGCT | 0.01
ATGGTCACGTGGGCCT | -0.17
GGCCTCACGTGGTGTT | 0.15
TTTTGCACGTGGTCTA | -0.11
GTAGGCACGTGGAAGT | 0.05
TTGCTCACGTGATGTT | 0.28
CTGTTCACGTGTGTTC | 0.17
ATTAGCACGTGGTGTG | -0.14
TATGACACGTGCATGT | 0.02
TTAGTCACGTGATTAT | 0.27
GTGGACACGTGTCGTT | 0.06
TGGGACACGTGAATGA | 0.29
AATGTCACGTGATTCT | 0.17
TGCAGCACGTGAGTGT | 0.08
CCGTGCACGTGAGGGT | 0.12
CATTGCACGTGGATTA | 0.12
ATATTCACGTGTGGAT | 0.09
GGTAGCACGTGTGCAG | 0.1
TATGGCACGTGTAAGT | -0.06
GTGGGCACGTGTAAGA | 0.1
AGGGTCACGTGTCGAA | 0.03
CGAGGCACGTGATATG | -0.07
TCGGTCACGTGTGTTA | 0.12

Sequence | relative binding free energy [kcal/mol]
TAGCGCACGTGTGGTC | -0.09
TTCTTCACGTGATTAG | 0.37
GGTTGCACGTGGTGAA | 0.03
GTTTTCACGTGTATTT | 0.36
ACTAGCACGTGGAGGT | -0.08
TCAGCCACGTGGTGTG | -0.18
AGTCTCACGTGGTTTT | 0.19
AGTGTCACGTGGGGGA | -0.07
CGTGTCACGTGGGTAA | -0.02
GTCGTCACGTGATGTA | 0.28
TATGTCACGTGGGCAT | 0.03
GAAAGCACGTGGTTTG | -0.1
CGACGCACGTGGGGGG | -0.24
ATGGGCACGTGTTGGG | -0.06
GGGGCCACGTGTGTAA | -0.07
TTTACCACGTGGTGAG | -0.04
ATTGTCACGTGAAAGG | 0.34
GAGTGCACGTGTGATG | 0.11
TGGTCCACGTGTGAAT | 0.12
AGTGGCACGTGTCCGG | -0.1
GGAGACACGTGCGGGT | 0.11
